# The whole screen tested about 260,000 compounds, of which about 150 (0.058%) were called active. Inconclusive results, whose numbers are uncertain, are shown with a selection of clear calls. Calls follow the shape of the dose curve; as a rule, active = well fitted inhibition curve with a large enough effect; inconclusive = small, poorly fitted or top-dose-only effect; inactive = no such curve, though single readings can be large or run the other way. Potencies of inconclusive entries are left out as doubtful fits.
# Molecular target: Pyruvate kinase PKM (Homo sapiens) (UniProt P14618)
# UniProt P14618, sequence (P14618 whole entry, looked up, canonical isoform): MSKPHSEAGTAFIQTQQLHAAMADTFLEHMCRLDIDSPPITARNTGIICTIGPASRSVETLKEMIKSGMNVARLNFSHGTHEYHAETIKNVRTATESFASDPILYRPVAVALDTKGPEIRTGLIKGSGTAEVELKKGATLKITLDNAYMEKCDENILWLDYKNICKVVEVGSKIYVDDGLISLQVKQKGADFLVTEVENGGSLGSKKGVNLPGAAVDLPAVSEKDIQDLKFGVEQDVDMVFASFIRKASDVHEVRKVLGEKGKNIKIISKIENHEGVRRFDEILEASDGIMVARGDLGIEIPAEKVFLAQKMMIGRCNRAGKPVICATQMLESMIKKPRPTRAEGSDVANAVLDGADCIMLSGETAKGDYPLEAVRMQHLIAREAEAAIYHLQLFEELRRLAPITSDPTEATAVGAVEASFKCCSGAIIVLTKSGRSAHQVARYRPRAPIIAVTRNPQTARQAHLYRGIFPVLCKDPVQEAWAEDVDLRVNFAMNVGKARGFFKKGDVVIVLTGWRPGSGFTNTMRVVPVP
# Experiment: qHTS Assay for Inhibitors of Human Muscle isoform 2 Pyruvate Kinase; also: nearly all actives have a fitted effect of over 60% in size;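 as to activity change, negative = inhibition: plate controls were uninhibited enzyme wells for no effect and no-enzyme wells for full effect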
# Settings: purified PKM2, ATP generation, Kinase-Glo luminescence; series mostly up to 57.5 µM; activity change, negative = inhibition: at the top concentration
# Method in brief: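 Enzyme run at intermediate activity with final 0.1 mM ADP, 0.5 mM PEP (50 mM imidazole pH7.2, 50 mM KCl, 7 mM MgCl2), incubated 1 h at r.t. ATP formed read by Kinase-Glo luminescence, normalized to no-enzyme (full inhibition) and uninhibited wells.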
# Potency is read from the fitted curve at half-maximal effect; tags tell the direction and shape of the fitted curve.
Compound,Potency,"activity change, negative = inhibition"
N#CCOC(=O)c1c2c(nc3ccccc13)CCC2,"inconclusive [falling, single point]",–
COc1ccccc1/C=C1\SC(=S)N(CCC(=O)Nc2cccc(O)c2)C1=O,–,inactive: 37.4%
CCOC(=O)c1c(C)[nH]c(C)c1C(=O)COC(=O)c1cc(OC)cc(OC)c1,"inconclusive [falling, single point]",–
O=C(Nc1ccccn1)c1ccc2c(c1)OCO2,"inconclusive [falling, partial curve]",–
CC1S/C(=N/N=C/c2ccco2)N(Cc2ccccc2)C1=O (stereo not given),–,inactive: 93.2%
CC(NC(=O)c1ccc(N2CCNCC2)c([N+](=O)[O-])c1)C12CC3CC(CC(C3)C1)C2 (stereo not given),"inconclusive [falling, single point]",–
CCc1ccc(-n2c(=O)c3c(C)c(C(=O)N(C)C)sc3n(CC(=O)NCC3CCCO3)c2=O)cc1 (stereo not given),"inconclusive [falling, single point]",–
CN(C)N=Nc1ccc2nc[nH]c2c1,–,inactive: 85.6%
Cc1ccc(CCC(=O)Nc2ncc(Cc3cc(Cl)ccc3Cl)s2)o1,–,inactive: 35.6%
C/C(=N\NC(=O)c1ccccn1)c1ccc(C(=O)O)s1,"inconclusive [falling, single point]",–
COc1cc(C(=O)N2CCN(S(=O)(=O)c3ccc(F)cc3)CC2)cc(OC)c1OC,–,inactive: 41.4%
O=c1cc(N2CCCCC2)[nH]c(=O)n1C1CCCCC1,–,inactive: 63%
O=C(CCCn1c(=O)c2sccc2n(Cc2cc(=O)n3ccccc3n2)c1=O)NCc1ccco1,"inconclusive [falling, single point]",–
COc1ccc(CCNc2ccc(C(CC(N)=O)NC(=O)Cc3ccc(Br)cc3)cc2[N+](=O)[O-])cc1 (stereo not given),–,inactive: 42.1%
S=c1[nH]nc(NCCCN2CCOCC2)s1,"inconclusive [falling, single point]",–
Cc1occc1C(=O)Nc1ccc2c(c1)OCCO2,"inconclusive [falling, partial curve]",–
Cc1ccc(C(=O)O/N=C(\N)c2ccccn2)cc1C,"inconclusive [falling, partial curve]",–
Cc1ccc(/C=N/NC(=O)c2ccoc2C)s1,"inconclusive [falling, partial curve]",–
Cc1ccc(C(=O)N2c3ccccc3CC2C)o1 (stereo not given),"inconclusive [falling, single point]",–
O=C(NC1CCN(Cc2ccccc2)CC1)c1ccc(S(=O)(=O)NCc2ccco2)cc1,"inconclusive [falling, single point]",–
COc1ccc(N/C=C2\CCc3ccccc3C2=O)cc1,"inconclusive [falling, partial curve]",–
c1ccc(-c2noc(-c3ccc4ccccc4c3)n2)nc1,"inconclusive [falling, partial curve]",–
COC(=O)c1ccc(C)c(NS(=O)(=O)c2ccc(C)c([N+](=O)[O-])c2)c1,"inconclusive [falling, single point]",–
Cc1ccc(C(=O)Nc2cccc(C(=O)O)c2)cc1,"inconclusive [falling, partial curve]",–
Cc1ccc(NC(=O)Nc2ccccc2C(N)=O)cc1,"inconclusive [falling, partial curve]",–

Compound,Potency,"activity change, negative = inhibition"
NC(=S)N/N=C/c1coc2cc(Br)ccc2c1=O,"inconclusive [falling, single point]",–
O=C(Nc1ccc2c(c1)OCO2)Nc1ccccc1F,"inconclusive [falling, partial curve]",–
O=C(CCCc1nc2ccccc2s1)N1CCN(S(=O)(=O)c2cccs2)CC1,–,inactive: 118%
CCCCC(=O)NC(=S)Nc1cccc(NC(=O)c2ccccc2)c1,"inconclusive [falling, single point]",–
Cc1ccc(CNC(=O)[C@H](C)[C@H]2C[C@]2(C)[C@H](NC(=O)OCc2ccccc2)c2ccccc2)o1,–,inactive: 42.8%
CCCCC1(C)NC(=S)N2N1C(=S)NC2(C)CCCC (stereo not given),"inconclusive [falling, single point]",–
O=C1COc2ccc(C(=O)C[n+]3cccc(O)c3)cc2N1,"inconclusive [falling, single point]",–
CCn1cc(-c2cc(C(=O)O)c3ccccc3n2)cn1,"inconclusive [falling, partial curve]",–
C/C(=N\Nc1nccnc1Cl)c1ccc(F)cc1,"inconclusive [falling, partial curve]",–
O=C(CN1CCN(S(=O)(=O)c2ccc(F)cc2)CC1)NC1CC1,–,inactive: 38.1%
CCN1/C(=C/c2ccc3cc(C)ccc3[n+]2CC)Sc2ccccc21,active: 4.47 µM,–
CN(C)CCCNCCCNC(=O)c1ccco1,"inconclusive [falling, single point]",–
O=c1cc(-c2ccccc2)[nH]c2nc3ccccc3n12,"inconclusive [falling, partial curve]",–
O=C(NCC1CCCO1)c1csc(Nc2cccc3ccccc23)n1 (stereo not given),"inconclusive [falling, partial curve]",–
CCn1nc(C)c(CNC(=O)CC2C(=O)NCCN2CC(C)C)c1C (stereo not given),"inconclusive [falling, full curve, poor fit]",–
O=C(Nc1ccc(NC(=O)c2ccco2)nc1)c1ccccn1,"inconclusive [falling, single point]",–
COc1ccc(NC(=O)Cc2ccc(-c3ccccc3)cc2)cn1,"inconclusive [falling, single point]",–
Cc1ccc(-n2[nH]c(C)c(/C=N/Nc3ccc([N+](=O)[O-])cc3[N+](=O)[O-])c2=O)cc1C,"inconclusive [falling, partial curve]",–
c1ccc(-c2noc(-c3cccnc3)n2)nc1,"inconclusive [falling, partial curve]",–
O=C(/C=C/c1ccc2c(c1)OCCCO2)c1ccccc1O,"inconclusive [falling, single point]",–
Cc1nc(Nc2nc3ccccc3o2)nc2c1CCC2,"inconclusive [falling, partial curve]",–
CCN(CC)c1ccc(/C=C2\SC(=O)N(C(C)C)C2=O)o1,–,inactive: 98.2%
Cc1ccc2c(c1)C(N1CCCC1=O)CC(c1ccco1)N2 (stereo not given),active: 14.1 µM,–
CN(C(=O)c1ccco1)c1nc2c(s1)CCCC2,"inconclusive [falling, single point]",–
CN(C)CCNC(=O)c1cccc(S(=O)(=O)Nc2ccc(F)cc2)c1,"inconclusive [falling, single point]",–

Compound,Potency,"activity change, negative = inhibition"
O=C1C(C=Nc2ccccc2)=C(O)c2ccccc21,"inconclusive [falling, partial curve]",–
COc1ccc(C2CC(C(F)(F)F)n3nc(C(=O)NCc4c(C)nn(C)c4C)c(Cl)c3N2)cc1 (stereo not given),"inconclusive [falling, full curve, poor fit]",–
O=C(/C=C\c1ccco1)c1ccc(NC(=O)c2ccco2)cc1,–,inactive: 49.6%
Cc1cc(N2Cc3ccccc3C2)ccc1C=O,"inconclusive [falling, single point]",–
CCOc1ccc(NS(=O)(=O)c2ccc3ncsc3c2)cc1,–,inactive: 55.5%
Cc1ccc(-c2nc(-c3ccccn3)no2)cc1,active: 10 µM,–
O=C1CCCc2c1cc(C(=O)Nc1ccc(Br)cn1)c(=O)n2-c1ccccc1,"inconclusive [falling, single point]",–
Cn1c(-c2ccco2)nc2cc3ccccc3cc21,"inconclusive [falling, partial curve]",–
Cc1ccc(CNC(=O)CCNC(=O)Cn2ccc3ccccc3c2=O)o1,–,inactive: 48.8%
CCC1Cc2c(nc(N)c3c(N)nc(N4CCCCC4)c(C#N)c23)O1 (stereo not given),–,inactive: 43.2%
O=C(O)c1ccccc1C(=O)Nc1n[nH]c(=S)s1,"inconclusive [falling, single point]",–
O=[N+]([O-])c1cccc(/C=N/Nc2nccnc2Cl)c1,"inconclusive [falling, partial curve]",–
Cn1nc(OCC(=O)O)cc1C(F)(F)F,"inconclusive [falling, single point]",–
Cc1ccc(-c2cc(C(=O)N3CCN(c4ncccn4)CC3)c3cc(Br)ccc3n2)o1,–,inactive: 91.4%
CCc1ccc(/C=C2\CN(CC)Cc3c2nc2ccccc2c3C(=O)O)cc1,–,inactive: 66.6%
O=C(NCc1ccccc1F)C1CCN(S(=O)(=O)c2ccccc2)CC1,–,inactive: 45.4%
CSc1ccc(/C=N/NC(=O)c2cccc(O)c2)cc1,"inconclusive [falling, partial curve]",–
Nc1ccc2nc(Cc3ccccc3)[nH]c2c1,–,inactive: 80.3%
O=C(/C=C/c1ccc(O)cc1)c1ccccc1,"inconclusive [falling, partial curve]",–
Nc1ccc2nc(-c3ccccn3)[nH]c2c1,"inconclusive [falling, partial curve, poor fit]",–
O=C(O/N=C1/CCCc2occc21)c1ccccc1,"inconclusive [falling, single point]",–
CCOc1ccc(NC(=O)CSc2ncn[nH]2)c([N+](=O)[O-])c1,–,inactive: 81.5%
Cc1ccc(C(=O)Nc2ccc(C(=O)N3CCCCC3)cc2)o1,"inconclusive [falling, partial curve]",–
Nc1cc(Cl)ccc1C(=O)OCC(=O)N1CCCC1,"inconclusive [falling, partial curve]",–
Cc1ccc(S(=O)(=O)N2CCN(c3nc(C)c4c(c3C#N)CC(C)(C)OC4)CC2)cc1,–,inactive: 33.4%
